Target: Plasma-purified human α-1 antitrypsin (Respreeza, CSL Behring) (human, UniProt P01009)
Assay: SDS-PAGE of the AAT-elastase complex, Coomassie stain; AAT (0.5 mg/mL, diluted 1 in 25) mixed with porcine pancreas elastase at a molar ratio of 2:1 (AAT:elastase), 30 min at room temperature, in some samples with 10 ng/mL LPS and 12 µg/mL spike; stopped with SDS sample buffer; 7.5% SDS gel (same samples also on 7.5% native gel)
Settings: both partners purified

B1: Porcine pancreas elastase (Sigma-Aldrich) (enzyme, UniProt P00772 27-266, looked up)
chain: VVGGTEAQRNSWPSQISLQYRSGSSWAHTCGGTLIRQNWVMTAAHCVDRELTFRVVVGEHNLNQNDGTEQYVGVQKIVVHPYWNTDDVAAGYDIALLRLAQSVTLNSYVQLGVLPRAGTILANNSPCYITGWGLTRTNGQLAQTLQQAYLPTVDYAICSSSSYWGSTVKNSMVCAGGDGVRSGCQGDSGGPLHCLVNGQYAVHGVTSFVSRLGCNVTRKPTVFTRVSAYISWINNVIASN
notes: porcine pancreas elastase (pancreatic elastase 1), bought enzyme; source: bought: Sigma-Aldrich, Merck
  binding result: binds

From paper PMC8347018, “Boosted Pro-Inflammatory Activity in Human PBMCs by Lipopolysaccharide and SARS-CoV-2 Spike Protein Is Regulated by α-1 Antitrypsin †” (International Journal of Molecular Sciences, 2021)
